# Test system: PTC-DTR mice
# Settings: mouse, in vivo
compound,measurement,value
"COC(=O)CCCSc1ccccc1 [UPHD-00025, methyl 4-(phenylsulfanyl)butanoate (m4PTB)]",increase in the rate of renal recovery,approximately 30%
same,reduction in peak BUN,30%
same,signs of toxicity,no overt signs of toxicity

# Reference: patent publication US10160705B2, “Class of HDAC inhibitors expands the renal progenitor cells population and improves the rate of recovery from acute kidney injury” (University of Pittsburgh—Of the Commonwealth System of …, priority 2011, dated 2018)
